In the experiment the test system is Plasmodium falciparum. The experiment in a line: Primary screen in NF54 nanoGlo assay, in single point, at 2uM, 72h; a lower Z score goes with more inhibition. The experiment is classed as functional, Erythrocyte. The note with it: timepoint 72 hour.

Data on 41 compounds can be found in ChEMBL document CHEMBL4888484, “Replenishing the malaria drug discovery pipeline: Screening and hit evaluation of the MMV Hit Generation Library 1 (HGL1) against asexual blood stage Plasmodium falciparum ,using a nano luciferase reporter read-out” (2022).

Values joined by “and” are separate entries in the source; they are usually repeats but may differ in a detail not shown here. Equal entries are not always repeated. About 540 (0.36%) of roughly 150,000 compounds showed an effect of 50% or more. This is one part of the list.

A word on the % Inhibition: it is the change of the read-out against control, counted positive when it falls.

Regarding `CN(Cc1cccnc1)C1CN(C(=O)Cc2cccc(F)c2)C1`, the “% Inhibition” value is listed as -4% and the Z score stood at 0.67.
The corresponding values for `CCCc1nn(C[C@H](O)COc2ccccc2)c(=O)o1` are 0% and 0.03.
The like results for `Cc1nc[nH]c1CN1C[C@H]2CC[C@@H](C1)N(C(=O)Cc1ccc(F)cc1Cl)C2` were, in that order, 11% and -1.58.
The corresponding values for `CN1CCN(C(=O)COc2c3c(cc4c2C(=O)N(C)CC4)OCO3)CC1` are -10% and 1.3.
Regarding `CN1CC2CN(c3nc4ccccc4s3)CC2C1` (stereo unspecified), the “% Inhibition” value is recorded as -8% and the Z score turned out to be 1.06.
The corresponding values for `Cc1ccc(C(O)(c2ccc(C)c(C)c2)[C@H]2C[N@]3CC[C@@H]2CC3)cc1C` are 37% and -0.92.
`N#Cc1cc(C(=O)N2C[C@@H]3CCCN3Cc3ccccc32)ccn1`: the “% Inhibition” value is recorded as -13% and the Z score was 1.57.
With `CCCC(=O)N1C[C@H](c2cc(F)cc(F)c2)[C@@H]2[C@H]1C1CCN2CC1`, the “% Inhibition” value is 2% and the Z score is on record as -0.41.
As for `O=C(Cc1cc2c(cc1Cl)OCCO2)N1CC(N2CCOCC2)C1`, the “% Inhibition” value is recorded as 15% and the Z score is on record as -1.92.
As for `C[C@@H](Cn1cc(Br)cn1)NCCC(F)(F)F`, the “% Inhibition” value is recorded as -3% and the Z score was 0.45.
Take `O[C@@H](CNC1CCCCC1)COC1CCCC1`: the “% Inhibition” value is listed as -7% and the Z score amounted to 1.09.
The like results for `CN1C[C@@H]2CC[C@H]1CN(C(=O)Cc1cccc(Cl)c1)C2` were, in that order, 14% and -1.32.
With `CC(Cc1ccc(Br)cc1F)NCC(CCO)c1ccccc1` (stereo unspecified), the “% Inhibition” value was -4% and the Z score is given as 0.64.
For the compound `N#CCN(C1CC1)S(=O)(=O)c1ccc(C#N)c(C(F)(F)F)c1`, the “% Inhibition” value is -2% and the Z score came out at 0.25.
`CC(=O)OC1C2CCC1C(N1CCCCC1)CC2` (stereo unspecified): the “% Inhibition” value (2 µM) was -7% and 4%.
Turning to `Cc1conc1CN1CCc2nc[nH]c2C12CCOCC2`, the “% Inhibition” value is -5% and the Z score came out at 0.83.
Take `O=C(c1ccccc1)c1cc(Cl)ccc1NC(=O)[C@H]1CC(=O)N(c2ccc(F)cc2)C1`: the “% Inhibition” value is on record as 56% and the Z score is on record as -9.01.
The like results for `O=C1NC(=O)C2(Cc3ccccc3N3CCCCC32)C(=O)N1c1cc(Cl)ccc1Cl` (stereo unspecified) were, in that order, -7% and 0.92.
The corresponding values for `O=C(c1cnn2cccnc12)N1C[C@@H](c2ccccc2)[C@@H]2[C@H]1C1CCN2CC1` are -4% and 0.73.
The corresponding values for `CNS(=O)(=O)c1cccc2c1CCNC2` are -14% and 1.76.
Regarding `CC(C)CN1C(=O)N(c2cccc(Cl)c2)[C@@H](n2oc(=O)n(-c3cccc(Cl)c3)c2=O)C1(C)C`, the “% Inhibition” value was -4% and the Z score is on record as 0.62.
The corresponding values for `C[C@H](NCc1ncc(Cl)cc1Br)[C@H](O)c1ccc2c(c1)OCO2` are 11% and -1.87.
The like results for `COCC(C)(C)N1CCN(C(=O)Cc2c(C)n[nH]c2C)CC1` were, in that order, 1% and -0.14.
For `CN1CC2CCN(S(=O)(=O)c3c[nH]c4ncc(Br)cc34)C2C1` (stereo unspecified), the “% Inhibition” value is -4% and the Z score stood at 0.49.
The corresponding values for `CN1C(=O)C2(CCN(C[C@H]3CCCO3)CC2)c2ccccc21` are -8% and 0.73.
The corresponding values for `Cn1ccnc1CCN1CCC(C(F)(F)F)CC1` are -15% and 1.66.
The like results for `Cc1ccc(CNCCc2c[nH]c3ccccc23)o1` were, in that order, 14% and -1.58.
Turning to `CCNC(=O)c1ccnc(N2C[C@H](c3ccccc3)[C@@H]3[C@H]2C2CCN3CC2)c1`, the “% Inhibition” value is 8% and the Z score is listed as -1.16.
`CCc1nnc(CN(CC)C(=O)CN2C(=O)CC[C@@H]2C)o1`: the “% Inhibition” value is -4% and the Z score was determined as 0.76.
The like results for `c1ccc(-c2ccc(NCc3cncnc3)nc2)cc1` were, in that order, -11% and 1.16.
The like results for `O=C(NCc1ccco1)Oc1ccccc1` were, in that order, -12% and 1.54.
The like results for `CCOc1ccc([C@@H](C#N)C(C)=O)cc1OCC` were, in that order, -12% and 1.21.
For `O=C(Cc1ccc2c(c1)OCO2)N1C[C@@H]2CC[C@H]1CN(Cc1ccccn1)C2`, the “% Inhibition” value is -10% and the Z score worked out at 1.51.
The corresponding values for `CC(C)(N)Cc1cccc(Br)c1` are 3% and -0.37.
As for `CC(C)c1cncnc1N1C[C@H]2COc3ccccc3C[C@@]2(C(=O)O)C1`, the “% Inhibition” value was -15% and the Z score was found to be 2.53.
In the case of `c1nc(CN2CC3(CCCCC3)C2)cs1`, the “% Inhibition” value was -12% and the Z score is 1.76.
The corresponding values for `Nc1ncnc(N2CCc3ccnc(O)c3C2)c1Cl` are -16% and 3.22.
The like results for `Cc1ccc(OCc2c(C(=O)NCc3cccnc3)c(=O)cc(C)n2CCN2CCOCC2)cc1` were, in that order, 3% and -0.42.
The like results for `N#Cc1ccc(NCCCOC[C@H]2CCOC2)cc1Cl` were, in that order, 1% and -0.16.
As for `CN1C(=O)[C@@]2(c3ccccc31)[C@@H](C(=O)N1CCC3(CC1)OCCO3)C[C@H]1CCCN12`, the “% Inhibition” value is -17% and the Z score stood at 1.67.
The corresponding values for `CC(C)n1ccc(CN2C[C@@H](C(=O)O)[C@H](c3ccc(Br)cc3)C2)n1` are -2% and 0.44.
